From the supplement of paper PMC4967469 come the findings set out here.

By IC50 is meant the dose at which the fit gives 50% viability; where the fit passes the top or lowest dose, that dose stands as a limit. For AUC the same curve is integrated over the 256-fold range of doses and scaled to a fraction; it is 1 without any effect and falls as sensitivity rises.

Compound in this assay: Cn1c(=O)n(-c2ccc(C(C)(C)C#N)cc2)c2c3cc(-c4cnc5ccccc5c4)ccc3ncc21 [NVP-BEZ235]
The assay is described as follows: Viability of human cancer cell lines after 72 h of drug (GDSC screen). The protocol: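 Human cancer cell lines in 384-well plates, medium with 10% serum, drug for 72 h over a 256-fold dose range (nine 2-fold or five 4-fold steps up to the top dose). Adherent lines were fixed and stained with the nucleic acid dye Syto60, suspension lines read with resazurin; signal relative to control wells, capped at 0 and 100%. One two-parameter sigmoid per drug and line, fitted in a mixed model over all curves with the slope shared within a line.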

For “HT-3 (cervix, adherent, top dose 0.25 µM)”, the AUC turned out to be 0.894 and the IC50 (as a rule, the concentration that inhibits the measured activity by half) is more than 250 nM.
For “HT-29 (large intestine, adherent, top dose 0.25 µM)” the same measures were 0.911 and more than 250 nM.
For “HT-115 (large intestine, adherent, top dose 0.25 µM)”, in that order: 0.888 and 238 nM.
For “HT-144 (melanoma, adherent, top dose 0.25 µM)”, in that order: 0.797 and 134 nM.
Consider “HT-1080 (fibrosarcoma, adherent, top dose 0.25 µM)”, for which the AUC worked out at 0.575 and the IC50 stood at 24.5 nM.
With “HT-1197 (bladder, adherent, top dose 0.25 µM)”, the AUC is 0.838 and the 50% inhibitory concentration (IC50) was 215 nM.
For “HT-1376 (bladder, adherent, top dose 0.25 µM)”, in that order: 0.914 and more than 250 nM.
For “HUTU-80 (digestive system, adherent, top dose 0.25 µM)”, in that order: 0.215 and 2.78 nM.
Regarding “HeLa (cervix, adherent, top dose 0.25 µM)”, the AUC came out at 0.874 and the IC50 was 224 nM.
For the cell line “Hep 3B2_1-7 (liver, adherent, top dose 0.25 µM)”, the AUC was 0.706 and the IC50 came out at 59.5 nM.
For Hey (ovary, adherent, top dose 0.25 µM), in that order: 0.426 and 9.93 nM.
For “Hs633T (fibrosarcoma, adherent, top dose 0.25 µM)” the same measures were 0.385 and 8.03 nM.
For “Hs683 (glioma, adherent, top dose 0.25 µM)” the same measures were 0.61 and 31.5 nM.
On to “Hs746T (stomach, adherent, top dose 0.25 µM)”, for which the AUC was 0.823 and the half-inhibitory concentration (IC50) was determined as 221 nM.
For “Hs766T (pancreas, adherent, top dose 0.25 µM)” the same measures were 0.651 and 47.2 nM.
For “Hs939-T (melanoma, adherent, top dose 0.25 µM)” the same measures were 0.731 and 76.4 nM.
For “HuCCT1 (biliary tract, adherent, top dose 0.25 µM)” the same measures were 0.721 and 71.9 nM.
Consider “HuH-7 (liver, adherent, top dose 0.25 µM)”, for which the AUC came to 0.538 and the IC50 is 19.8 nM.
For “HuO9 (osteosarcoma, adherent, top dose 0.25 µM)” the same measures were 0.592 and 28.7 nM.
For “HuO-3N1 (osteosarcoma, adherent, top dose 0.25 µM)” the same measures were 0.798 and 165 nM.
For “HuP-T3 (pancreas, adherent, top dose 0.25 µM)”, in that order: 0.83 and 208 nM.
On to “HuP-T4 (pancreas, adherent, top dose 0.25 µM)”, for which the AUC worked out at 0.765 and the IC50 worked out at 97.2 nM.
For “IA-LM (large cell lung carcinoma, adherent, top dose 0.25 µM)” the same measures were 0.756 and 95.2 nM.
Consider “IGR-1 (melanoma, adherent, top dose 0.25 µM)”, for which the AUC was determined as 0.679.
Consider “IGR-37 (melanoma, adherent, top dose 0.25 µM)”, for which the AUC was found to be 0.583 and the IC50 was determined as 25.9 nM.
For “IGROV-1 (ovary, adherent, top dose 0.25 µM)”, in that order: 0.776 and 152 nM.
For “IHH-4 (thyroid, semi-adherent, top dose 0.25 µM)”, in that order: 0.589 and 26 nM.
For “IM-9 (myeloma, suspension, top dose 0.25 µM)” the same measures were 0.989 and more than 250 nM.
On to “IMR-5 (neuroblastoma, adherent, top dose 0.25 µM)”, for which the AUC was determined as 0.948 and the IC50 was more than 250 nM.
For “IPC-298 (melanoma, adherent, top dose 0.25 µM)”, in that order: 0.777 and 98.7 nM.
For “IST-MEL1 (melanoma, adherent, top dose 0.25 µM)”, in that order: 0.55 and 21.9 nM.
For “IST-SL1 (small cell lung carcinoma, semi-adherent, top dose 0.25 µM)” the same measures were 0.942 and more than 250 nM.
With “IST-SL2 (small cell lung carcinoma, suspension, top dose 0.25 µM)”, the AUC was determined as 0.652 and the IC50 turned out to be 41 nM.
For “JAR (urogenital system, adherent, top dose 0.25 µM)” the same measures were 0.924 and more than 250 nM.
For “JEG-3 (urogenital system, adherent, top dose 0.25 µM)” the same measures were 0.738 and 68.9 nM.
For “JEKO-1 (B-cell lymphoma, suspension, top dose 0.25 µM)” the same measures were 0.548 and 21 nM.
In the case of “JHH-1 (liver, adherent, top dose 0.25 µM)”, the AUC amounted to 0.704 and the IC50 turned out to be 62.2 nM.
For “JHH-2 (liver, adherent, top dose 0.25 µM)”, in that order: 0.604 and 30.9 nM.
On to “JHH-4 (liver, adherent, top dose 0.25 µM)”, for which the AUC amounted to 0.765 and the IC50 was determined as 91.2 nM.
For “JHH-7 (liver, adherent, top dose 0.25 µM)”, in that order: 0.861 and 190 nM.
For “JHOS-2 (ovary, adherent, top dose 0.25 µM)”, in that order: 0.639 and 40.5 nM.
For “JHOS-3 (ovary, adherent, top dose 0.25 µM)”, in that order: 0.9 and more than 250 nM.
Regarding “JHOS-4 (ovary, adherent, top dose 0.25 µM)”, the AUC turned out to be 0.948 and the 50% inhibitory concentration (IC50) was more than 250 nM.
For “JHU-011 (head and neck, adherent, top dose 0.25 µM)” the same measures were 0.511 and 16.7 nM.
For “JHU-022 (head and neck, adherent, top dose 0.25 µM)”, in that order: 0.606 and 33 nM.
For “JHU-029 (head and neck, adherent, top dose 0.25 µM)” the same measures were 0.699 and 65.1 nM.
With “JIMT-1 (breast, adherent, top dose 0.25 µM)”, the AUC amounted to 0.516 and the IC50 amounted to 17.4 nM.
For “JJN-3 (haematopoietic neoplasm, suspension, top dose 0.25 µM)” the same measures were 0.651 and 37.7 nM.
For “JM1 (B-cell lymphoma, suspension, top dose 0.25 µM)”, in that order: 0.807 and 107 nM.
As for “JSC-1 (B-cell lymphoma, suspension, top dose 0.25 µM)”, the AUC came to 0.732 and the half-inhibitory concentration (IC50) amounted to 71.1 nM.
